Assay results from PubChem BioAssay AID485344 (National Center for Advancing Translational Sciences (NCATS), 2010).
In all, about 340,000 compounds went through this assay and about 6,900 (2%) were called active. Cut-off read from the data, not from the text of the source: active = inhibition above about 30%; inactive = below that, where a call was filed. The entries are a selection whose mix differs from that of the whole data set. Where no call is shown, the source filed none.

Each compound was assayed against D(2) dopamine receptor (Homo sapiens) (UniProt P14416) (assay: HTS Assay for Allosteric Antagonists of the Human D2 Dopamine Receptor: Primary Screen for Antagonists). Settings: HEK293 TREx D2 cells, calcium flux, dopamine EC80; at 10 µM; stronger effect = higher value.
Chain of UniProt P14416 (P14416 whole entry, looked up): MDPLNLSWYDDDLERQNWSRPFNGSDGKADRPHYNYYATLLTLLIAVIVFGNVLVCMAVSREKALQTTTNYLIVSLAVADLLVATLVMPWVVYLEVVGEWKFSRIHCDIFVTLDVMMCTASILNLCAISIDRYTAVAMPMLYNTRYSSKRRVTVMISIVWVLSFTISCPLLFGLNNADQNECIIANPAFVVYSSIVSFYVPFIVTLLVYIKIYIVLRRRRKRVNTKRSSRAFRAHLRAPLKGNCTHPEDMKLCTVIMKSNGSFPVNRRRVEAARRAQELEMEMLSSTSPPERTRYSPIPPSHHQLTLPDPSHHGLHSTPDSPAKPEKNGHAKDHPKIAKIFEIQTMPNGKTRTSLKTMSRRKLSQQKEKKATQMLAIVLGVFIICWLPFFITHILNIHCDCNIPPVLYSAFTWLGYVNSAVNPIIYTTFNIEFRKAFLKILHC
Procedure, shortened: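 Calcium flux kinetic readout in an inducible HEK293 TREx D2 line plated overnight at 30 C. After 180 s compound exposure, an EC80 dopamine challenge follows with another 180 s kinetic read to detect antagonism.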
Note: 0% is about no effect.

Row | Compound | inhibition
1 | Cc1cc(NC(=O)c2oc3c(c2C)-c2[nH]ncc2CC3)ccc1Br | 2.76%
2 | CCOc1ccc(CNC(=O)CCn2c(=O)c3cccn3c3cccnc32)cc1 | -5.03%
3 | O=C(CSc1nc(=O)n(Cc2ccco2)c2c1CCC2)NCc1ccccc1Cl | 14.2%
4 | COC(=O)c1scc(-c2ccc(C)cc2)c1S(=O)(=O)Nc1ccc(OC(F)(F)F)cc1 | -0.207%
5 | Cc1cc(N2CCN(C)CC2)nc2ccc(NC(=O)Nc3ccc(Cl)cc3)cc12 | 0.21%
6 | N#Cc1ccc(NC(=O)COCc2cc(-c3ccc4c(c3)OCO4)on2)cc1 | -6.27%
7 | CCOc1ccc(N2CC(NC(=O)c3ccc(S(=O)(=O)N4CCOCC4)cc3)CC2=O)cc1 (centres undefined) | 7.08%
8 | COCCNC(=O)CN1C(=O)COc2ccc(S(=O)(=O)N3CCOCC3)cc21 | -5.17%
9 | CCc1ccccc1N(C)C(=O)Nc1cn(CC(C)C)c(=O)c2ccccc12 | 9.57%
10 | CCn1cc(C(=O)OCC(=O)Nc2cccc(Cl)c2C)c(=O)c2ccc(C)nc21 | -0.115%
11 | CCC1CCCCN1S(=O)(=O)c1ccc2c(c1)CCCN2C(C)=O (centres undefined) | -8.43%
12 | C=Cc1ccc(CSc2nc(-c3ccccc3C)nc3c2Cc2c(CO)cnc(C)c2O3)cc1 | 6.82%
13 | COC(=O)c1c(SC)nc2ccccc2c1OCc1ccc(C)cc1C | -5.24%
14 | O=C(CSc1nnc2scc(-c3ccc(Cl)cc3)n12)Nc1ccccc1F | 24.4%
15 | Cc1ccc(-c2cc(C(F)(F)F)n3nc(C(=O)Nc4sc5c(c4C#N)CCC(C)C5)cc3n2)cc1 (centres undefined) | -2.51%
16 | Cc1ccc2onc(CC(=O)Nc3cc(F)ccc3F)c2c1 | -6.44%
17 | COc1ccc(C(=O)Nc2ccc3c(c2)N(C2CCCC2)C(=O)c2ccccc2S3)cc1OC | -5.91%
18 | CC(CNC(=O)c1ccc(CSc2nc3ccncc3n2Cc2cccc(F)c2)cc1)c1ccccc1 (centres undefined) | 10.6%
19 | CCOc1cccc(CC(=O)N2CCc3c([nH]c4ccccc34)C2c2ccc(C)cc2)c1OCC (centres undefined) | 3.96%
20 | Cc1ccc(C)c(-c2nn(CC(=O)Nc3cc(F)ccc3F)c(=O)c3c2CCCC3)c1 | 8.09%

Row | Compound | inhibition
21 | COc1cc(C(=O)Nc2ccc(Cl)c(-c3nc4ncccc4o3)c2)cc(OC)c1OC | -4.53%
22 | O=C(Cn1cc(S(=O)(=O)N2CCN(c3ccccc3F)CC2)c2ccccc2c1=O)Nc1cccc(C(F)(F)F)c1 | 10.6%
23 | Cc1ccccc1CNC(=O)CCCn1c(=O)c2cccn2c2ccccc21 | -8.81%
24 | Cc1cccc2c1-c1sc(C(=O)N3CCN(c4ccc(F)cc4)CC3)cc1CO2 | -5.88%
25 | COc1ccccc1CNC(=O)CCCn1nc(C)c2c(C)n(-c3ccc(C)cc3)nc2c1=O | -17.7%
26 | Cc1nc2ccn(Cc3cccnc3)c(=O)c2cc1C(=O)NCc1ccc(Cl)cc1 | -1.37%
27 | COc1ccc(N2C(=O)CSC23C(=O)N(CC(=O)NCc2ccccc2)c2ccccc23)cc1 (centres undefined) | -5.42%
28 | COc1ccc(S(=O)(=O)NC2(C(F)(F)F)NC(=O)N(CCc3ccc(OC)c(OC)c3)C2=O)cc1 (centres undefined) | 3.07%
29 | CS(=O)(=O)NCCc1csc2nc(-c3ccccc3)nn12 | -3.61%
30 | COc1cc(C2C(C(=O)OC(C)C)=C(C)N=C3SCCC(=O)N32)ccc1OCc1ccccc1 (centres undefined) | 21%
31 | COc1ccc(OC)c(NC(=O)c2c(NCc3ccc(C)o3)sc3c2CCCCC3)c1 | 4.2%
32 | COc1cccc(NC(=O)N(Cc2cn(C)c3ccccc23)C2CCCCC2)c1 | -1.5%
33 | COc1ccc(NC(=O)NCc2cccn2Cc2ccc(F)cc2)cc1OC | -9.78%
34 | Cc1cc(Nc2ccccc2Cl)n2nc(-c3ccco3)nc2n1 | -11.6%
35 | COc1ccccc1CNC(=O)C1CCN(S(=O)(=O)c2c(C)noc2/C=C/c2cccs2)CC1 | 8.88%
36 | Cc1cc(=O)n(Cc2ccc(F)cc2Cl)c2c1c(C)nn2-c1ccccc1 | 14.4%
37 | CCn1c(=O)c2sccc2n2c(CCCC(=O)N3CCN(c4cc(C)ccc4C)CC3)nnc12 | -11.9%
38 | Cc1ccn2c(=O)c(C(=O)NCCc3ccc(S(N)(=O)=O)cc3)c(O)nc2c1 | 11.2%
39 | COc1ccccc1N1CCN(S(=O)(=O)CCNC(=O)COc2ccc(F)cc2)CC1 | -6.88%
40 | Cc1ccc(CNC(=O)Cn2c(=O)cc(-c3ccccc3)c3c(C)nn(C)c32)cc1 | -5.37%

Row | Compound | inhibition
41 | COc1cc(C2CC(=O)Oc3c(C(CCN4CCCC(C)C4)c4ccc(N(C)C)cc4)c(OC)cc(OC)c32)cc(OC)c1OC (centres undefined) | active: 43.7%
42 | CCOc1ccc(C(=O)NCCC2=CCCCC2)cc1OCC | active: 37.5%
43 | CCc1ccc(NC(=O)CC2C(=O)N(c3ccc(OC)cc3)C(=O)N2Cc2ccc(OC)cc2)cc1 (centres undefined) | -3.69%
44 | Cc1c(C(=O)NCCc2ccccc2)cccc1-n1cnc2cccnc21 | 1.33%
45 | COc1ccc(CCNc2ncnc3c2c(-c2ccccc2)cn3-c2cccc(Cl)c2)cc1OC | -20.8%
46 | CCOc1ccc(NC(=O)Cn2c(=O)n(Cc3ccccc3)c(=O)c3sc4ccccc4c32)cc1 | -1.94%
47 | Cc1cc(C)cc(NC(=O)CN2C(=O)CSc3ccc(S(=O)(=O)N4CCCC4)cc32)c1 | 9.54%
48 | COc1ccccc1/C=C\C(=O)NCC(=O)N/N=C/c1cccc(OC)c1O | active: 49.5%
49 | CCOc1ccc(NC(=O)c2c(NC(=O)c3cccc(C)c3)sc3c2CCC3)cc1 | 5.66%
50 | O=C(NCC1CCN(Cc2cccc(F)c2)CC1)c1cc2ccc3cccnc3c2[nH]1 | 11.5%
51 | CCOC(=O)c1c(NC(=O)CSc2cn(CCNC(=O)c3ccccc3OC)c3ccccc23)sc2c1CCCC2 | 9%
52 | CC1=C(c2ccc(C(C)C)cc2)S(=O)(=O)N=C1N1CCC(C(=O)NCc2ccco2)CC1 | 4.7%
53 | Cc1nn(CC(=O)N2CCN(c3ccccc3)CC2)c(=O)c2cc3cc(F)ccc3n12 | 1.29%
54 | CCSc1nc(-c2ccccc2)nc2c1Cc1c(CO)cnc(C)c1O2 | -4.03%
55 | CCOC(=O)C1CCN(C(=O)C2CCN(S(=O)(=O)c3c(C)noc3/C=C/c3ccc(C)cc3)CC2)CC1 | 10.5%
56 | CCOC(=O)c1[nH]c(C)c(CCC(=O)N2CCN(c3ccc(OC)cc3)CC2)c1C | -10.2%
57 | O=C(O)CCC(=O)N1CCc2cc(S(=O)(=O)NCc3ccc(F)cc3)ccc21 | -23.1%
58 | COc1ccc(NC(=O)c2cccc3c(=O)c4c([nH]c23)CCCC4)cc1 | 19.3%
59 | Cc1ccc(C(C)C)c(OCC(=O)Nc2ccc3c(c2)nc(CCNC(=O)c2ccco2)n3C)c1 | 4.05%
